# Results from article PMC5892938.
# This is one part of the list. The source does not settle which construct or isoform was used.
# Target: GST-SBP-ILF3 (Homo sapiens) (UniProt Q12906)
# Assay: targeted RNA Bind-n-Seq
# Conditions: RBNS binding buffer: 25 mM Tris pH 7.5, 150 mM KCl, 3 mM MgCl2, 0.1% Tween, 0.5 mg/mL BSA, 1 mM DTT; 27 nM protein, 750 pM RNA pool; temperature not stated; high values mean tight binding; sequences stand for … in GGGUAAAAGCGAGGUGAA…CGGGACAAGUAUUAUGGG
row,Sequence,binding signal (log2 fold change)
1,UUCUCUCUUCCUCCGGGGGAGGAGGGGAGA [ctspaired],-0.468
2,GGUGUGUGUGUUGGUUCCUAACACACGCGC [gtspaired],-0.529
3,UUUUUUUUUUGAGACCGGAUCGGUUUCCUG [tttttgagapaired],0.867
4,UUUUUUUUUUGAGACCGUCACGGUCUCCAG [tttttgagapaired],0.406
5,UUUUUUUUUUGAGAGCGGAGCGCUCUCCUG [tttttgagapaired],0.495
6,UUUUUUUUUUGAGAGGGCAGCCCUCUCCUA [tttttgagapaired],1.09
7,GUGUGUUGUGUUGGCGUCUAACACAACGCA [gtspaired],-0.405
8,GUGGUGUGUGUUGGUGUCUAACACAUACUA [gtspaired],-0.631
9,UUUUUUUUUUGAGAGGGUGACCCUCUUCUG [tttttgagapaired],0.249
10,GGUGUGUGUGUUGGCGUCUAACACAUACGC [gtspaired],-0.689
11,GUUGGUGGUGUUGGACUCUAACACCGCCGA [gtspaired],-0.325
12,UUUUUUUUUUGAGACCGGCACGGUCUUCUG [tttttgagapaired],0.445
13,UUUUUUUUUUGAGACUGACUCAGUCUCCUA [tttttgagapaired],0.107
14,GGUGGUUGUGUUGGCGUCUAACACAAUCGC [gtspaired],-0.409
15,UUUUUUUUUUGAGAGGGAUCCCUUCUCCGG [tttttgagapaired],-0.128
16,UUUUUUUUUUGAGAUGGUGGCCAUCUUCUA [tttttgagapaired],0.567
17,UUUUUUUUUUGAGACCGUAACGGUCUCCUA [tttttgagapaired],0.264
18,UUUUUUUUUUGAGACGGGGGCCGUUUCCGG [tttttgagapaired],1.02
19,UUUUUUUUUUGAGACGGCCGCCGUCUUCUA [tttttgagapaired],0.785
20,UUUUUUUUUUGAGAUCGAACCGAUCUCCGG [tttttgagapaired],-0.0229
21,GUGUUGUGUGUUGGAUUCUAACACACAGCA [gtspaired],-0.78
22,UUUUUUUUUUGAGACUGUAACAGUCUUCUG [tttttgagapaired],0.461
23,UUUUUUUUUUGAGAUGGCGUCCAUCUCCAG [tttttgagapaired],0.717
24,GGUUGUGGUGUUGGUACCUAACACCGCGAC [gtspaired],-0.545
25,UUUUUUUUUUGAGAUGGCAUCCAUCUCCGG [tttttgagapaired],0.282
26,GGUUGGUGUGUUGGCCUCUAACACAUCGAC [gtspaired],-0.822

row,Sequence,binding signal (log2 fold change)
1,UUUUUUUUUUGAGAGGGAGGCCCUCUCCUG [tttttgagapaired],0.545
2,UUUUUUUUUUGAGACCGCAACGGUCUUCUA [tttttgagapaired],0.252
3,UUUUUUUUUUGAGAGUGUAUCACUCUCCUA [tttttgagapaired],-0.185
4,UUUUUUUUUUGAGAGGGACCCCCUCUUCUG [tttttgagapaired],0.425
5,UUUUUUUUUUGAGAUCGAUCCGAUCUCCAG [tttttgagapaired],0.242
6,UUCUUCCUUCCUCCGGGGGAGGAGGGGAGA [ctspaired],-0.363
7,GGUUGUGGUGUUGGUACCUAACACCGCAGC [gtspaired],-0.707
8,UUUUUUUUUUGAGACUGUGACAGUCUCCAG [tttttgagapaired],0.406
9,GUGUGUGGUGUUGGAGCCUAACACCACGCA [gtspaired],-0.347
10,UUUUUUUUUUGAGAGCGUACCGCUCUCCUA [tttttgagapaired],0.0322
11,GUGUGGUGUGUUGGACUCUAACACAUCGCG [gtspaired],-0.727
12,UUUUUUUUUUGAGAGCGACACGCUCUCCUG [tttttgagapaired],0.385
13,UUUUUUUUUUGAGACGGCGUCCGUUUCCUA [tttttgagapaired],0.892
14,UUUUUUUUUUGAGACCGACACGGUUUCCAG [tttttgagapaired],0.436
15,UUUUUUUUUUGAGACCGGGUCGGUCUCCUA [tttttgagapaired],0.391
16,UUUUUUUUUUGAGAUGGUUGCCAUCUUCUA [tttttgagapaired],0.138
17,UUUUUUUUUUGAGAUGGGUUCCAUCUUCUA [tttttgagapaired],0.112
18,UUUUUUUUUUGAGACUGUAACAGUCUCCAG [tttttgagapaired],0.32
19,UUUUUUUUUUGAGAGGGACCCCCUUUCCAG [tttttgagapaired],0.354
20,UUUUUUUUUUGAGACGGCAACUGUCUCCUG [tttttgagapaired],1.07
21,UUUUUUUUUUGAGAACGGUCCGUUCUCCAG [tttttgagapaired],0.392
22,UUUUUUUUUUGAGAGGGGAGCCCUCUCCUA [tttttgagapaired],0.577
23,UUUUUUUUUUGAGACCGUCACGGUCUCCGG [tttttgagapaired],0.399
24,GUGGUGUGUGUUGGUCUCUAACACAUACCA [gtspaired],-0.748
25,UUUUUUUUUUGAGAUGGGGGCCAUCUCCUG [tttttgagapaired],0.893
26,UUCUCUUCUCCUCCACUGGAGGGGGAGGGA [ctspaired],0.041

row,Sequence,binding signal (log2 fold change)
1,GGUGUGUGUGUUGGCUUCUAACACAUAUAC [gtspaired],-0.799
2,UUUUUUUUUUGAGAGGGCACCCCUCUCCUG [tttttgagapaired],0.808
3,UUUUUUUUUUGAGACUGGUGCAGUCUCCUG [tttttgagapaired],0.512
4,UUUUUUUUUUGAGAGGGAGACCCUCUUCUA [tttttgagapaired],0.506
5,UUUUUUUUUUGAGACUGUGGCAGUUUCCGG [tttttgagapaired],0.841
6,UUUUUUUUUUGAGAUGGUCUCCAUCUUCUA [tttttgagapaired],0.131
7,GUGUGUUGUGUUGGAAUCUAACACAGCGCA [gtspaired],-0.79
8,UUUUUUUUUUGAGACCGUAUCGGUCUCCUG [tttttgagapaired],0.716
9,GGUUGUGGUGUUGGCCUCUAACACCGCAGC [gtspaired],-0.615
10,UUUUUUUUUUGAGACUGGGGCAGUCUCCUG [tttttgagapaired],0.79
11,GUGUGGUGUGUUGGUGUCUAACACAUCACG [gtspaired],-0.975
12,GUGGUUGGUGUUGGCACCUAACACCAAUCA [gtspaired],-0.575
13,UUUUUUUUUUGAGAUGGCGGCCAUUUCCAG [tttttgagapaired],0.737
14,UUCUCUCUUCCUCCACUGGAGGAGGAGGGA [ctspaired],-0.333
15,UUUUUUUUUUGAGAGGGCUGCCCUCUCCGG [tttttgagapaired],1.03
16,UUUUUUUUUUGAGACGGUUUCCGUCUCCUA [tttttgagapaired],0.135
17,UUUUUUUUUUGAGAGGGUAGCCCUCUCCUG [tttttgagapaired],0.705
18,GGUGGUUGUGUUGGUUCCUAACACAAUCGC [gtspaired],-0.463
19,UUUUUUUUUUGAGACUGUAUCAGUCUUCUA [tttttgagapaired],0.249
20,UUUUUUUUUUGAGACUGGAUCAGUCUCCGG [tttttgagapaired],0.154
21,UUUUUUUUUUGAGAACGCGACGUUCUCCAG [tttttgagapaired],0.0919
22,UUUUUUUUUUGAGAGGGCUCCCCUCUCCUA [tttttgagapaired],0.474
23,UUUUUUUUUUGAGAUCGAAACGGUCUUCUA [tttttgagapaired],0.0948
24,UUUUUUUUUUGAGAGGGCUGCCCUCUUCUA [tttttgagapaired],0.93
25,UUUUUUUUUUGAGAUGGGUACCAUCUCCAG [tttttgagapaired],0.157
26,UUUUUUUUUUGAGAUGGCGUCCAUCUUCUA [tttttgagapaired],0.648

row,Sequence,binding signal (log2 fold change)
1,UUUUUUUUUUGAGACGGAGUCCGUCUCCAG [tttttgagapaired],0.339
2,GGUGUGUGUGUUGGUCUCUAACACAUACGC [gtspaired],-0.618
3,UUUUUUUUUUGAGAGGGGAGCCCUCUCCUG [tttttgagapaired],0.896
4,UUUUUUUUUUGAGAGCGUCACGUUCUCCAG [tttttgagapaired],0.596
5,GUGUGGUGUGUUGGCUCCUAACACACUAUA [gtspaired],-0.64
6,UUUUUUUUUUGAGAUGGGUGCCGUCUCCUA [tttttgagapaired],0.788
7,UUUUUUUUUUGAGACGGUGUCUGUCUCCGG [tttttgagapaired],0.873
8,UUUUUUUUUUGAGAGGGAAACCCUCUCCAG [tttttgagapaired],0.0238
9,GUGUGGUGUGUUGGAACCUAACACAUCGCG [gtspaired],-0.569
10,UUUUUUUUUUGAGACUGUGACAGUUUUCUA [tttttgagapaired],0.401
11,UUUUUUUUUUGAGACCGAAACGGUUUCCAG [tttttgagapaired],0.347
12,GUGGUGUGUGUUGGCCUCUAACACACAUCA [gtspaired],-0.762
13,GGUGUGUGUGUUGGUGCCUAACACAUAUAC [gtspaired],-0.464
14,UUUUUUUUUUGAGACGGGAUCCGUUUCCUG [tttttgagapaired],0.505
15,GUGUGGUGUGUUGGUGCCUAACACAUCACA [gtspaired],-0.28
16,GUGUUGUGUGUUGGCUCCUAACACACAGCG [gtspaired],-0.754
17,UUUUUUUUUUGAGAACGUAUCGUUCUCCAG [tttttgagapaired],0.0529
18,UUUUUUUUUUGAGAACGUGACGUUCUUCUA [tttttgagapaired],0.3
19,UUUUUUUUUUGAGACGGGAACCGUCUUCUA [tttttgagapaired],0.0219
20,GUGUGUUGUGUUGGCAUCUAACACAGCGCG [gtspaired],-0.716
21,UUUUUUUUUUGAGAUCGAGUCGAUCUCCUG [tttttgagapaired],0.135
22,GUGUGGUGUGUUGGUAUCUAACACACUACG [gtspaired],-0.583
23,GUGUGUGGUGUUGGAUUCUAACACCAUACG [gtspaired],-0.771
24,GGUGGUUGUGUUGGUCCCUAACACAGCUAC [gtspaired],-0.596
